Data as given in US20230120736A1, “ANTI-CD98 ANTIBODIES AND ANTIBODY DRUG CONJUGATES” (AbbVie Inc., priority 2016, published 2023).
Numbering of substitutions follows the chain as printed.

B1: CD98 (CL-huAb108)-YY (conjugate)
heavy: EVQLVQSGAEVKKPGASVKVSCKASGFTFSDYTMAWVRQAPGQGLEWVATIIYSGRGTYYRDAVKGRFTITRDNSTSTLYLELSSLRSEDTAVYYCARQSDDTYYYWGYFDYWGQGTMVTVSSASTKGPSVFPLAPSSKSTSGGTAALGCLVKDYFPEPVTVSWNSGALTSGVHTFPAVLQSSGLYSLSSVVTVPSSSLGTQTYICNVNHKPSNTKVDKKV[omitted - human IgG1 Fc with changes]
light: DIVMTQTPLSLPVTPGEPASINCKSSQSLLFSGNQKNYLAWYLQKPGQSPQLLIYWASTRQSGVPDRFSGSGSGTDFTLKISRVEAEDVGIYYCQQYYDVPYTFGQGTKLEIKRTVAAPSVFIFPPSDEQLKSGTASVVCLLNNFYPREAKVQWKVDNALQSGNSQESVTEQDSKDSTYSLSSTLTLSKADYEKHKVYACEVTHQGLSSPVTKSFNRGEC
B2: CD98 (CL-huAb110)-AAA (conjugate)
heavy: EVQLVQSGAEVKKPGASVKVSCKASGFTFSDYTMAWVRQAPGQGLEWVATIIYDARGTYYRDAVKGRFTITRDNSTSTLYLELSSLRSEDTAVYYCARQSDDTYYYWGYFDYWGQGTMVTVSSASTKGPSVFPLAPSSKSTSGGTAALGCLVKDYFPEPVTVSWNSGALTSGVHTFPAVLQSSGLYSLSSVVTVPSSSLGTQTYICNVNHKPSNTKVDKKV[omitted - human IgG1 Fc with changes]
light: B1 light with D99S, V100S
B3: CD98 (CL-huAb102)-AAD (conjugate)
heavy: EVQLVESGGGLVQPGGSLRLSCATSGFTFIDYYMSWVRQAPGKGLEWLGFIRNKANRYTTEYSASVKGRFTISRDNSKSILYLQMNSLKTEDTAVYYCTRDRPAWFVYWGQGTLVTVSSASTKGPSVFPLAPSSKSTSGGTAALGCLVKDYFPEPVTVSWNSGALTSGVHTFPAVLQSSGLYSLSSVVTVPSSSLGTQTYICNVNHKPSNTKVDKKV[omitted - human IgG1 Fc with changes]
light: B1 light with N22S, F31Y, G33S, Q61E, I91V, D99S, V100Y, Q106G, L110V
modifications: non-natural residues
B4: CD98 (CL-huAb108)-AAD (conjugate)
heavy: EVQLVQSGAEVKKPGASVKVSCKASGFTFSDYTMAWVRQAPGQGLEWVATIIYSGRGTYYRDAVKGRFTITRDNSTSTLYLELSSLRSEDTAVYYCARQSDDTYYYWGYFDYWGQGTMVTVSSASTKGPSVFPLAPSSKSTSGGTAALGCLVKDYFPEPVTVSWNSGALTSGVHTFPAVLQSSGLYSLSSVVTVPSSSLGTQTYICNVNHKPSNTKVDKKV[omitted - human IgG1 Fc with changes]
light: B1 light
modifications: non-natural residues
B5: CD98 (CL-huAb104)-AAD (conjugate)
heavy: EVQLVESGGGLVQPGGSLRLSCATSGFTFIDYYMSWVRQAPGKGLEWLGFIRNKAYGYTTEYSASVKGRFTISRDNSKSILYLQMNSLKTEDTAVYYCTRDRPAWFVYWGQGTLVTVSSASTKGPSVFPLAPSSKSTSGGTAALGCLVKDYFPEPVTVSWNSGALTSGVHTFPAVLQSSGLYSLSSVVTVPSSSLGTQTYICNVNHKPSNTKVDKKV[omitted - human IgG1 Fc with changes]
light: B1 light with N22S, F31Y, G33S, Q61E, I91V, D99S, V100Y, Q106G, L110V
modifications: non-natural residues
B6: CD98 (CL-huAb110)-YY (conjugate)
heavy: EVQLVQSGAEVKKPGASVKVSCKASGFTFSDYTMAWVRQAPGQGLEWVATIIYDARGTYYRDAVKGRFTITRDNSTSTLYLELSSLRSEDTAVYYCARQSDDTYYYWGYFDYWGQGTMVTVSSASTKGPSVFPLAPSSKSTSGGTAALGCLVKDYFPEPVTVSWNSGALTSGVHTFPAVLQSSGLYSLSSVVTVPSSSLGTQTYICNVNHKPSNTKVDKKV[omitted - human IgG1 Fc with changes]
light: B1 light with D99S, V100S
B7: CD98 (CL-huAb110)-AAD (conjugate)
heavy: EVQLVQSGAEVKKPGASVKVSCKASGFTFSDYTMAWVRQAPGQGLEWVATIIYDARGTYYRDAVKGRFTITRDNSTSTLYLELSSLRSEDTAVYYCARQSDDTYYYWGYFDYWGQGTMVTVSSASTKGPSVFPLAPSSKSTSGGTAALGCLVKDYFPEPVTVSWNSGALTSGVHTFPAVLQSSGLYSLSSVVTVPSSSLGTQTYICNVNHKPSNTKVDKKV[omitted - human IgG1 Fc with changes]
light: B1 light with D99S, V100S
modifications: non-natural residues

Experiment: Size exclusion chromatography, % aggregate fraction of ADC
Assay type: physicochemical
Settings: ADCs of Table 27
Procedure: Size exclusion chromatography was performed using a Shodex KW802.5 column in 0.2M potassium phosphate pH 6.2 with 0.25 mM potassium chloride and 15% IPA at a flow rate of 0.75 ml/min. The peak area absorbance at 280 nm was determined for each of the high molecular weight and monomeric eluents by integration of the area under the curve. The % aggregate fraction of the conjugate sample was determined by dividing the peak area absorbance at 280 nm for the high molecular weight eluent by the sum of the peak area absorbances at […] of the high molecular weight and monomeric eluents multiplied by 100%.

Q: With B1 as the molecule, how does the “% agg by SEC” value read?
A: Its value is 15.5%.

Q: Which “% agg by SEC” value does the source give for B2 here?
A: Its value is 15.2%.

Q: With B3 as the molecule, how does the “% agg by SEC” value read?
A: The value was 1.3%.

Q: Which “% agg by SEC” value does the source give for B4 here?
A: Its value is 3.3%.

Q: With B5 as the molecule, how does the “% agg by SEC” value read?
A: The value was 2.3%.

Q: Which “% agg by SEC” value does the source give for B6 here?
A: The value was 15.4%.

Q: Which “% agg by SEC” value does the source give for B7 here?
A: The value was 2.9%.

Experiment: DAR determination by LC-MS
Settings: ADCs of Table 27
Procedure: LC-MS analysis was performed using an Agilent 1100 HPLC system interfaced to an Agilent LC/MSD TOF 6220 ESI mass spectrometer. The ADC was reduced with 5 mM (final concentration) BOND-BREAKER TCEP solution (Thermo Scientific, Rockford, Ill.), loaded onto a Protein Microtrap (Michrom Bioresorces, Auburn, Calif.) desalting cartridge, and eluted with a gradient of 10% B to 75% B in 0.2 minutes at ambient temperature. Mobile phase A was H2O with 0.1% formic acid (FA), mobile phase B was acetonitrile with 0.1% FA, and the flow rate was 0.2 ml/min. Electrospray-ionization time-of-flight mass spectra of the co-eluting light and heavy chains were acquired using Agilent MassHunter™ acquisition software. The extracted intensity vs. m/z spectrum was deconvoluted using the Maximum Entropy feature of MassHunter software to determine the mass of each reduced antibody fragment. DAR was calculated from the deconvoluted spectrum by summing intensities of the naked and modified peaks for the light chain and heavy chain, normalized by multiplying intensity by the number of drugs attached. The summed, normalized intensities were divided by the sum of the intensities, and the summing results for two light chains and two heavy chains produced a final average DAR value for the full ADC.

Q: For B1, which “DAR by MS” value is on record?
A: The value was 1.8.

Q: With B2 as the molecule, how does the “DAR by MS” value read?
A: The value was 1.0.

Q: With B3 as the molecule, how does the “DAR by MS” value read?
A: The value was 3.0.

Q: With B4 as the molecule, how does the “DAR by MS” value read?
A: Its value is 2.6.

Q: Which “DAR by MS” value does the source give for B5 here?
A: The value was 3.0.

Q: Which “DAR by MS” value does the source give for B6 here?
A: Its value is 1.9.

Q: Which “DAR by MS” value does the source give for B7 here?
A: The value was 3.2.
